Results on four molecules are retold here after publication PMC10885370.

Protein sequences, listed by entry. Tags and fused reporters are not part of them.
UniProt P54578: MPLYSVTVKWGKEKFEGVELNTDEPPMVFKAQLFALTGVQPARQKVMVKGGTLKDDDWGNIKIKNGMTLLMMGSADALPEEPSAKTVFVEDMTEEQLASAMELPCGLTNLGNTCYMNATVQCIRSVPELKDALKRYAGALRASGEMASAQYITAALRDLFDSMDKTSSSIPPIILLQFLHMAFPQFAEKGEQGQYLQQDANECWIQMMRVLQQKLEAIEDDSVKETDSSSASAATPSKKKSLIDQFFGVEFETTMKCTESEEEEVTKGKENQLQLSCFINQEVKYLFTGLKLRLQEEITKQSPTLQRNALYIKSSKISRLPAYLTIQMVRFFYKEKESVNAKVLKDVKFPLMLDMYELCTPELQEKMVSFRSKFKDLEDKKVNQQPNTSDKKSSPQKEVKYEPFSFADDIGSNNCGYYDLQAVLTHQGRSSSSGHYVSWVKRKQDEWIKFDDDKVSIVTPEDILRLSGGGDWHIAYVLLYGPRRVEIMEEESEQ

Assay [1] deals with HA-tagged ubiquitin-specific protease 14 (USP14), stably overexpressed in HN4 cells (human), P54578. The experiment in a line: co-IP; immunoprecipitation with HA antibody (Fig. S2B), Western blot; cells not named in the legend. As to conditions: remark: other sources report otherwise. A general note: In western blotting, separated proteins are transferred to a membrane and probed.

The target in assay [2] is ubiquitin-specific protease 14 (USP14), endogenous in HN4 cells (human (endogenous in HN4)), P54578. The experiment in a line: co-IP; immunoprecipitation with USP14 antibody (Fig. S2A), Western blot; cells not named in the legend. As to conditions: remark: other sources report otherwise.
For assay [3], the target named is HA-tagged ubiquitin-specific protease 14 (USP14), stably overexpressed in HN4 cells (human) (UniProt P54578). As to the kind of experiment: co-IP; immunoprecipitation with HA antibody (Fig. S2B), Western blot; cells not named in the legend.
Assay [4] has as its target ubiquitin-specific protease 14 (USP14), endogenous in HN4 cells (human (endogenous in HN4)) (UniProt P54578). As to the kind of experiment: co-IP; immunoprecipitation with USP14 antibody (Fig. S2A), Western blot; cells not named in the legend.
The target in assay [5] is HA-tagged ubiquitin-specific protease 14 (USP14), expressed in HEK293T cells (human) (UniProt P54578). As to the kind of experiment: co-IP; whole-cell lysates of HEK293T cells expressing HA-USP14 and Flag-PFKL; lysis buffer 1% NP-40, 50 mM Tris-HCl pH 7.4, 150 mM NaCl, 5 mM EDTA, 0.02% SDS; protein A/G agarose; Western blot.
The target in assay [6] is ubiquitin-specific protease 14 (USP14), endogenous in HN4 cells (human (endogenous in HN4)) (UniProt P54578). As to the kind of experiment: co-IP; endogenous proteins in HN4 cell lysate; lysis buffer 1% NP-40, 50 mM Tris-HCl pH 7.4, 150 mM NaCl, 5 mM EDTA, 0.02% SDS; antibody or IgG control overnight at 4 °C, protein A/G agarose; Western blot.
Assay [7] has as its target HA-tagged ubiquitin-specific protease 14 (USP14), stably overexpressed in HN4 cells (human) (UniProt P54578). The experiment in a line: co-IP; whole-cell lysates of HN4 cells stably expressing HA-USP14; lysis buffer 1% NP-40, 50 mM Tris-HCl pH 7.4, 150 mM NaCl, 5 mM EDTA, 0.02% SDS; antibody or IgG control overnight at 4 °C, protein A/G agarose; Western blot.

These are yes or no findings as the source states them, for the method shown. Binding seen in cells or lysates may run through a third protein. Some binding calls cover weakened binding; strength is not graded here. For some of these results: Sequences can lack the tags named with a protein.

B1: phosphofructokinase, platelet isozyme (PFKP), Q01813 1-784 (enzyme)
chain: MDADDSRAPKGSLRKFLEHLSGAGKAIGVLTSGGDAQGMNAAVRAVVRMGIYVGAKVYFIYEGYQGMVDGGSNIAEADWESVSSILQVGGTIIGSARCQAFRTREGRLKAACNLLQRGITNLCVIGGDGSLTGANLFRKEWSGLLEELARNGQIDKEAVQKYAYLNVVGMVGSIDNDFCGTDMTIGTDSALHRIIEVVDAIMTTAQSHQRTFVLEVMGRHCGYLALVSALACGADWVFLPESPPEEGWEEQMCVKLSENRARKKRLNIIIVAEGAIDTQNKPITSEKIKELVVTQLGYDTRVTILGHVQRGGTPSAFDRILASRMGVEAVIALLEATPDTPACVVSLNGNHAVRLPLMECVQMTQDVQKAMDERRFQDAVRLRGRSFAGNLNTYKRLAIKLPDDQIPKTNCNVAVINVGAPAAGMNAAVRSAVRVGIADGHRMLAIYDGFDGFAKGQIKEIGWTDVGGWTGQGGSILGTKRVLPGKYLEEIATQMRTHSINALLIIGGFEAYLGLLELSAAREKHEEFCVPMVMVPATVSNNVPGSDFSIGADTALNTITDTCDRIKQSASGTKRRVFIIETMGGYCGYLANMGGLAAGADAAYIFEEPFDIRDLQSNVEHLTEKMKTTIQRGLVLRNESCSENYTTDFIYQLYSEEGKGVFDCRKNVLGHMQQGGAPSPFDRNFGTKISARAMEWITAKLKEARGRGKKFTTDDSICVLGISKRNVIFQPVAELKKQTDFEHRIPKEQWWLKLRPLMKILAKYKASYDVSDSGQLEHVQPWSV
Take B1: the binding entry in assay [1] and in assay [2] was “no binding” each time.

B2: phosphofructokinase, muscle isozyme (PFKM) (enzyme, UniProt P08237 1-780)
chain: MTHEEHHAAKTLGIGKAIAVLTSGGDAQGMNAAVRAVVRVGIFTGARVFFVHEGYQGLVDGGDHIKEATWESVSMMLQLGGTVIGSARCKDFREREGRLRAAYNLVKRGITNLCVIGGDGSLTGADTFRSEWSDLLSDLQKAGKITDEEATKSSYLNIVGLVGSIDNDFCGTDMTIGTDSALHRIMEIVDAITTTAQSHQRTFVLEVMGRHCGYLALVTSLSCGADWVFIPECPPDDDWEEHLCRRLSETRTRGSRLNIIIVAEGAIDKNGKPITSEDIKNLVVKRLGYDTRVTVLGHVQRGGTPSAFDRILGSRMGVEAVMALLEGTPDTPACVVSLSGNQAVRLPLMECVQVTKDVTKAMDEKKFDEALKLRGRSFMNNWEVYKLLAHVRPPVSKSGSHTVAVMNVGAPAAGMNAAVRSTVRIGLIQGNRVLVVHDGFEGLAKGQIEEAGWSYVGGWTGQGGSKLGTKRTLPKKSFEQISANITKFNIQGLVIIGGFEAYTGGLELMEGRKQFDELCIPFVVIPATVSNNVPGSDFSVGADTALNTICTTCDRIKQSAAGTKRRVFIIETMGGYCGYLATMAGLAAGADAAYIFEEPFTIRDLQANVEHLVQKMKTTVKRGLVLRNEKCNENYTTDFIFNLYSEEGKGIFDSRKNVLGHMQQGGSPTPFDRNFATKMGAKAMNWMSGKIKESYRNGRIFANTPDSGCVLGMRKRALVFQPVAELKDQTDFEHRIPKEQWWLKLRPILKILAKYEIDLDTSDHAHLEHITRKRSGEAAV
B2: the binding result in assay [3] and in assay [4] was “no binding” each time.

B3: Flag-tagged phosphofructokinase-1 liver type (PFKL), expressed in HEK293T cells (enzyme, UniProt P17858 1-780)
chain: MAAVDLEKLRASGAGKAIGVLTSGGDAQGMNAAVRAVTRMGIYVGAKVFLIYEGYEGLVEGGENIKQANWLSVSNIIQLGGTIIGSARCKAFTTREGRRAAAYNLVQHGITNLCVIGGDGSLTGANIFRSEWGSLLEELVAEGKISETTARTYSHLNIAGLVGSIDNDFCGTDMTIGTDSALHRIMEVIDAITTTAQSHQRTFVLEVMGRHCGYLALVSALASGADWLFIPEAPPEDGWENFMCERLGETRSRGSRLNIIIIAEGAIDRNGKPISSSYVKDLVVQRLGFDTRVTVLGHVQRGGTPSAFDRILSSKMGMEAVMALLEATPDTPACVVTLSGNQSVRLPLMECVQMTKEVQKAMDDKRFDEATQLRGGSFENNWNIYKLLAHQKPPKEKSNFSLAILNVGAPAAGMNAAVRSAVRTGISHGHTVYVVHDGFEGLAKGQVQEVGWHDVAGWLGRGGSMLGTKRTLPKGQLESIVENIRIYGIHALLVVGGFEAYEGVLQLVEARGRYEELCIVMCVIPATISNNVPGTDFSLGSDTAVNAAMESCDRIKQSASGTKRRVFIVETMGGYCGYLATVTGIAVGADAAYVFEDPFNIHDLKVNVEHMTEKMKTDIQRGLVLRNEKCHDYYTTEFLYNLYSSEGKGVFDCRTNVLGHLQQGGAPTPFDRNYGTKLGVKAMLWLSEKLREVYRKGRVFANAPDSACVIGLKKKAVAFSPVTELKKDTDFEHRMPREQWWLSLRLMLKMLAQYRISMAAYVSGELEHVTRRTLSMDKGF
For the molecule B3, the binding entry in assay [5] is on record as “binds”.

B4: phosphofructokinase-1 liver type (PFKL), endogenous in HN4 cells (enzyme, UniProt P17858 1-780)
chain: B3 chain
Take B4: the binding result in assay [6] and in assay [7] was “binds” each time.
